Hit rate of the full screen: of about 45,000 compounds, about 200 (0.44%) were called active. Not shown: some 7% with an inconclusive outcome. Calls come from the whole dose curve; as a rule, active = well fitted activation curve with a large enough effect; inconclusive = small, poorly fitted or top-dose-only effect; inactive = no such curve, though single readings can be large or run the other way. Some of the results follow.
Assay: qHTS of TDP-43 Inhibitors: NCGC Sytravon Library Screen; note: 0% is about no effect; nearly all actives have a fitted effect of over 55% in size
Conditions: yeast TDP-43 toxicity rescue, BacTiter-Glo growth, 24 h; series mostly up to 46.1 µM; growth rescue (activation): at the top concentration
Procedure, shortened: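 TDP-43-expressing yeast, pregrown in raffinose, seeded at OD600 0.02 in galactose medium with compound for 24 hr at 30 deg C. Growth read by BacTiter-Glo luminescence, so rescue of toxicity appears as activation.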
With `COc1cc2[nH]c(=O)n(CCC(=O)N3CCN(Cc4ccccc4)CC3)c(=O)c2cc1OC` the “growth rescue (activation)” value was inactive: 5.8%. For `CCC1CCCCN1CCCNC(=O)c1ccc(N2CCOCC2)c(NS(=O)(=O)c2ccc(OC)cc2)c1` (stereo not drawn), the “growth rescue (activation)” value was inactive: -3.69%. For `O=C(NCc1ccccc1)C1CCCN(S(=O)(=O)c2ccc(-n3cnnn3)cc2)C1` (stereo not drawn), the “growth rescue (activation)” value was inactive: -1.08%. For `CCOc1ccccc1NC(=O)c1ccc(OCC)c([N+](=O)[O-])c1`, the “growth rescue (activation)” value was inactive: 13.1%. In the case of `C=CCSc1nnc(CC(OC)OC)n1-c1ccccc1`, the “growth rescue (activation)” value is reported as inactive: 10.8%. For `CCCCNC(=O)Cc1ccc(C)cc1`, the “growth rescue (activation)” value was inactive: -0.41%. With `Cc1ccc(NC(=O)COc2ccc(-c3nn(C)c(=O)c4ccccc34)cc2)c(C)c1` the “growth rescue (activation)” value was inactive: 7.78%. In the case of `CCOC(=O)Cc1c(C)nc2c(-c3cccc(Br)c3)cnn2c1C`, the “growth rescue (activation)” value is reported as inactive: 20.1%. With `CCCCOc1cccc(C(=O)Nc2ccc(NC(=O)c3cccs3)cc2)c1` the “growth rescue (activation)” value was inactive: 8.19%. In the case of `Cc1cccc(C)c1OCC(=O)Nc1ccc(NC(=O)c2ccco2)cc1`, the “growth rescue (activation)” value is reported as inactive: 16.6%. With `O=C(O)c1ccc(S(=O)(=O)N2CCOCC2)o1` the “growth rescue (activation)” value was inactive: -6.1%. With `O=C(NCCNC(=O)c1cc(Cl)ccc1Cl)c1ccccn1` the “growth rescue (activation)” value was inactive: 11.7%. With `CCCCSc1nnc2c(n1)OC(c1ccc(C)s1)Nc1ccccc1-2` (stereo not drawn) the “growth rescue (activation)” value was inactive: -1.23%. For `CCOC(=O)/C(C#N)=C/c1cc2ccc(C)cc2nc1Cl`, the “growth rescue (activation)” value was inactive: 27.5%. For `NS(=O)(=O)c1ccc(CCNC(=O)c2ccc(=O)[nH]c2)cc1`, the “growth rescue (activation)” value was inactive: -15.2%. In the case of `CC(C)CNS(=O)(=O)c1ccc(CCC(=O)NCc2ccco2)cc1`, the “growth rescue (activation)” value is reported as inactive: 30.3%. With `CC(=O)NC(CC(=O)NC1CCCc2ccccc21)c1ccccc1` (stereo not drawn) the “growth rescue (activation)” value was inactive: -11.1%. In the case of `CCCNS(=O)(=O)c1cccc(C(=O)OCc2cc(=O)oc3cc(OC)ccc23)c1`, the “growth rescue (activation)” value is reported as inactive: 26.6%. In the case of `COc1ccc(C2CC(=O)Oc3c2c(=O)n(C)c2ccccc32)c(OC)c1OC` (stereo not drawn), the “growth rescue (activation)” value is reported as inactive: 6.24%. In the case of `COc1ccc(NC(=O)CSc2cn[nH]n2)c(OC)c1`, the “growth rescue (activation)” value is reported as inactive: -2.64%. With `O=C1CN(C(=O)COC(=O)CCNS(=O)(=O)c2ccc(Cl)cc2)c2ccccc2N1` the “growth rescue (activation)” value was inactive: 14.4%. For `CCc1ccc(NC(=O)CSc2nnc(-c3n[nH]c4ccccc34)n2-c2ccccc2)cc1`, the “growth rescue (activation)” value was inactive: -6%. For `Cc1cccc(N2CCN(C(=O)C3CCN(S(=O)(=O)N4CCOCC4)CC3)CC2)c1C`, the “growth rescue (activation)” value was inactive: 15.5%. With `COc1ccc([N+](=O)[O-])cc1NC(=O)c1ccc(N2C(=O)CCC2=O)cc1` the “growth rescue (activation)” value was inactive: -19.3%. With `Cc1nnc(NC(=O)CSc2nnc3ncccn23)s1` the “growth rescue (activation)” value was inactive: -12%. With `Cn1nc(-c2ccc(OCC(=O)NCC3CCCO3)cc2)c2ccccc2c1=O` (stereo not drawn) the “growth rescue (activation)” value was inactive: 10.8%. For `C/C(=N\NC(=O)COc1ccc(C)cc1C(C)C)c1cc2ccccc2o1`, the “growth rescue (activation)” value was inactive: 5.65%. For `CSCCC(NS(=O)(=O)c1ccc2c(c1)Cc1cc(S(=O)(=O)NC(CCSC)C(=O)O)ccc1-2)C(=O)O` (stereo not drawn), the “growth rescue (activation)” value was inactive: 2.32%. For `O=C(O)c1ccc2c(=O)n3c(nc2c1)/C(=C/c1cccc(Cl)c1Cl)CC3`, the “growth rescue (activation)” value was inactive: -9.99%. For `CC(C)Cc1nnc(NC(=O)CSc2nc(-c3ccccc3)cc(=O)[nH]2)s1`, the “growth rescue (activation)” value was inactive: 18.1%. For `Nc1nonc1-n1nnc(C(=O)N/N=C/c2ccco2)c1-c1ccccc1`, the “growth rescue (activation)” value was inactive: 3.95%. With `Cc1ccc(C(C(=O)NCc2ccccc2)N(C(=O)c2ccccn2)c2ccccc2)o1` (stereo not drawn) the “growth rescue (activation)” value was inactive: -18.9%. With `O=C(C1CCN(Cc2ccc(Cl)cc2)CC1)N1CCN(Cc2ccc3c(c2)OCO3)CC1` the “growth rescue (activation)” value was inactive: 14.4%. With `O=C(CCn1c2c(c3ccccc31)CCCC2)NNC(=O)c1ccccc1Cl` the “growth rescue (activation)” value was inactive: 8.71%. For `CN=c1scc(-c2cccs2)n1/N=C/c1ccc(O)c(O)c1O`, the “growth rescue (activation)” value was inactive: -52.3%. With `CC1Cc2ccccc2N1S(=O)(=O)c1cccc(C(=O)NCc2ccco2)c1` (stereo not drawn) the “growth rescue (activation)” value was inactive: 6.19%. With `CCc1ccc(CCC(=O)Nc2ncc(Cc3ccccc3Cl)s2)o1` the “growth rescue (activation)” value was inactive: 12.5%. With `CCc1ccc(N(C(=O)c2csnn2)C(C(=O)NC(C)(C)C)c2ccccn2)cc1` (stereo not drawn) the “growth rescue (activation)” value was inactive: 1.69%. In the case of `Cc1ccc(NC(=O)c2ccc(CNc3c(N4CCC(C)CC4)c(=O)c3=O)cc2)cc1`, the “growth rescue (activation)” value is reported as inactive: 30.4%. With `O=S(=O)(c1ccc(=S)[nH]c1)N1CCN(Cc2ccccc2)CC1` the “growth rescue (activation)” value was inactive: 0.771%. In the case of `CC1CCCC(C)N1C(=O)Cn1cc(C#N)c2ccccc21` (stereo not drawn), the “growth rescue (activation)” value is reported as inactive: -5.49%. In the case of `Cc1ccc(CN2C(=O)C(F)(F)Oc3ccc(C)cc32)cc1`, the “growth rescue (activation)” value is reported as inactive: 1.84%. For `COC(=O)Cn1c(Cc2ccccc2)nc2ccccc21`, the “growth rescue (activation)” value was inactive: -3.54%. With `CCN1C(=O)C(CC(=O)Nc2ccccc2)N(Cc2ccccn2)C1=S` (stereo not drawn) the “growth rescue (activation)” value was inactive: 18.1%. With `CCCCNC(=O)C1CCN(S(=O)(=O)N2CCOCC2)CC1` the “growth rescue (activation)” value was inactive: 5.13%. In the case of `O=C(COC(=O)c1cc(-c2cccs2)nn1-c1ccccc1)Nc1ccc(Cl)c([N+](=O)[O-])c1`, the “growth rescue (activation)” value is reported as inactive: 16%. In the case of `CC(C)Oc1ccc(-c2nc(NCC3CCCO3)c3ccccc3n2)cc1` (stereo not drawn), the “growth rescue (activation)” value is reported as inactive: 7.51%. With `COc1ccc(OCc2nnc(SCC(=O)NC3CC4CCC3C4)o2)cc1` (stereo not drawn) the “growth rescue (activation)” value was inactive: 0.189%. In the case of `CCCCOc1ccc([N+](=O)[O-])cc1C(=O)O`, the “growth rescue (activation)” value is reported as inactive: -19.3%. With `NS(=O)(=O)c1ccc(NC(=O)COC(=O)c2cnccn2)cc1` the “growth rescue (activation)” value was inactive: 5.01%. In the case of `Cc1ccc(S(=O)(=O)N2CCN(C(=O)Cn3c(=O)cnc4ccccc43)CC2)c(C)c1`, the “growth rescue (activation)” value is reported as inactive: 38.5%. With `CNc1ccc2ncc(-c3ccccc3NC(C)=O)n2n1` the “growth rescue (activation)” value was inactive: 0.109%. With `O=C(Nc1c(C(=O)C2CC2)oc2ccccc12)c1ccc(Cl)cc1` the “growth rescue (activation)” value was inactive: -12%. For `CC(=O)Nc1ccccc1C(=O)C(=O)Nc1ccccc1`, the “growth rescue (activation)” value was inactive: 18%. With `CCC1CCC(C(=O)NC(C(=O)NCCCN2CCCCC2C)C(C)C)CC1` (stereo not drawn) the “growth rescue (activation)” value was inactive: 1.18%. With `COc1ccc(CC(=O)Nc2nc(-c3ccc(F)c(F)c3)cs2)cc1` the “growth rescue (activation)” value was inactive: 19.3%. For `Cn1ccnc1SCc1cccc([N+](=O)[O-])c1`, the “growth rescue (activation)” value was inactive: -6.73%. For `CN(CCNC(=O)CN1C(=O)CSc2ccc(S(=O)(=O)N3CCCC3)cc21)Cc1ccccc1`, the “growth rescue (activation)” value was inactive: -4.77%. With `COc1ccc(-c2nc3ccccn3c2/N=C/c2ccc(OC)c(OC)c2)cc1O` the “growth rescue (activation)” value was inactive: 7.26%. For `CCCC(=O)N1CCCC(c2nc(-c3cccc(OC)c3)no2)C1` (stereo not drawn), the “growth rescue (activation)” value was inactive: 10.5%. For `COc1cc(NC(=S)NCc2ccco2)cc(OC)c1OC`, the “growth rescue (activation)” value was inactive: 6.67%. For `CS(=O)(=O)N(CC(=O)NCc1ccc2c(c1)OCO2)c1cccc(Cl)c1`, the “growth rescue (activation)” value was inactive: 2.76%. For `Cn1c(COc2ccccc2)nc2ccccc21`, the “growth rescue (activation)” value was inactive: 11.4%. In the case of `OCCN1CCN(CC(O)COc2ccc(Cl)cc2)CC1` (stereo not drawn), the “growth rescue (activation)” value is reported as inactive: -18.3%. In the case of `CC1CN(S(=O)(=O)N2CCOCC2)CCN1S(=O)(=O)N1CCOCC1` (stereo not drawn), the “growth rescue (activation)” value is reported as inactive: -6.25%. With `Cc1ccc(NS(=O)(=O)c2ccc(Br)cc2)nc1` the “growth rescue (activation)” value was inactive: -22%. In the case of `CC(=O)Oc1ccc(/C=C2/SC(=S)N(Cc3ccccc3)C2=O)cc1`, the “growth rescue (activation)” value is reported as inactive: -8.94%. With `Cc1ccc([N+](=O)[O-])cc1N(CC(=O)NCC1CCCO1)S(C)(=O)=O` (stereo not drawn) the “growth rescue (activation)” value was inactive: -9.42%.
